Reference: PubChem BioAssay AID651820 (National Center for Advancing Translational Sciences (NCATS), 2012)
The whole screen tested about 340,000 compounds, of which about 12,000 (3.5%) were called active. The inconclusive results got no clear call from the source; some entries with a clear call stand among them for comparison. Calls come from the whole dose curve; as a rule, active = well fitted inhibition curve with a large enough effect; inconclusive = small, poorly fitted or top-dose-only effect, or another doubt; inactive = no such curve, though single readings can be large or run the other way. Potencies of inconclusive entries are left out as doubtful fits.

assay: qHTS Assay for Inhibitors of Hepatitis C Virus (HCV); settings: Huh7.5.1 HCVcc-Cre (HCVcc is cell-culture hepatitis C virus) infection, luciferase reporter, 44 h; activity change, negative = inhibition: at 41.8 µM (top of the series)
Outline: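 Reporter virus HCVcc-Cre (~0.5 moi) infects cells exposed to compound; seeding density 1,000 cells/well with 4 h settling beforehand. Luminescence, 15 sec read, taken 44 h post-infection following a 15 min RT substrate incubation.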
% is set by controls: 0 for no effect and ±100 for the full control effect; potency is the fitted concentration of half-maximal effect; tags give direction and shape of the fitted curve.

Row | Compound | Potency | activity change, negative = inhibition
1 | CCN(CC)c1ccc(/C=C2\SC(=O)N(C(C)C)C2=O)o1 | active: 10 µM | –
2 | COC(=O)CCCC(=O)NC1CCCN(C2Cc3ccccc3C2)C1 (stereo unspecified) | – | inactive: 1.7%
3 | COc1ccc(C(=O)/C=C2\NCCc3cc(OC)c(OC)cc32)cc1OC | inconclusive [inhibitor, single point] | –
4 | Cc1onc(-c2ccccc2Cl)c1-c1nc(-c2ccncc2)no1 | inconclusive [inhibitor, partial curve] | –
5 | CCN(CC)CCn1c2ccccc2c2cnc(N=CN(C)C)c(C#N)c21 | inconclusive [inhibitor, single point] | –
6 | CCc1ccc(C(=O)COC(=O)c2cc([N+](=O)[O-])ccc2N2CCOCC2)cc1 | active: 1 µM | –
7 | O=C(COc1ccc([N+](=O)[O-])cc1)NCCC1=CCCCC1 | – | inactive: -5.21%
8 | Cc1cccc(OCc2nc(C#N)c(NCc3ccc4c(c3)OCO4)o2)c1 | inconclusive [inhibitor, single point] | –
9 | Cc1cc2oc(C(=O)NC3CCS(=O)(=O)C3)c(C)c2cc1C (stereo unspecified) | inconclusive [inhibitor, single point] | –
10 | Cc1nn(Cc2ccccc2)c(C)c1C=C1C(=O)NC(=S)NC1=O | – | inactive: 16.5%
11 | COc1ccccc1C(=O)NC(=O)CSc1nncn1C(C)C | – | inactive: -3.14%
12 | CCCCc1cc(=O)oc2cc(C)cc(OC(C)C(=O)NCC3CCC(C(=O)O)CC3)c12 (stereo unspecified) | inconclusive [inhibitor, single point] | –
13 | COc1ccc(/C(C#N)=C/c2ccccn2)cc1 | inconclusive [inhibitor, single point] | –
14 | O=C(NC(NC(=S)Nc1cc(Cl)ccc1Cl)C(Cl)(Cl)Cl)c1ccco1 (stereo unspecified) | inconclusive [inhibitor, single point] | –
15 | CNC(=O)c1ccc(NC(=O)c2ccc3c(=O)n4c(nc3c2)CCC4)cc1 | – | inactive: 9.13%
16 | NC(=O)c1cc(-c2ccccc2)nc(N2CCOCC2)n1 | active: 5.01 µM | –
17 | COc1ccc(CCNC(=O)c2cc(C3CC3)nc3c2cnn3C(C)C)cc1OC | inconclusive [inhibitor, full curve] | –
18 | C#CCN1[C@@H]2CCN(C2)c2cc(Br)ccc2S1(=O)=O | inconclusive [inhibitor, single point] | –
19 | Cc1ccc(S(=O)(=O)N2CCC(Oc3cccc(C(F)(F)F)c3)CC2)cc1 | inconclusive [inhibitor, single point] | –
20 | COc1ccccc1-c1cnn2c(NCc3ccccc3)cc(C)nc12 | inconclusive [inhibitor, partial curve] | –
21 | Cc1ccc(-c2csc(NC(=O)Cc3ccc(F)cc3)n2)o1 | inconclusive [inhibitor, single point] | –
22 | O=C(c1ccccc1C(=O)N(c1ccccc1)c1ccccc1)N1CCCCC1 | inconclusive [inhibitor, full curve] | –
23 | Cc1ccccc1Cn1c(=N)n(CC(=O)c2ccco2)c2ccccc21 | inconclusive [inhibitor, partial curve] | –
24 | NNc1nc(NCc2ccccc2)nc(N2CCOCC2)n1 | inconclusive [inhibitor, partial curve] | –

Row | Compound | Potency | activity change, negative = inhibition
25 | COc1ccc(CC2(C)OC(c3ccc([N+](=O)[O-])cc3)=NN2C(C)=O)cc1 (stereo unspecified) | inconclusive [inhibitor, single point] | –
26 | O=C(Nc1ccc(Cl)c(C(=O)N2CCOCC2)c1)c1ccccc1 | inconclusive [inhibitor, full curve, poor fit] | –
27 | CCOC(=O)c1ccc(N/C=C/C(=O)c2ccccc2)cc1 | – | inactive: 7.69%
28 | COCCC(=O)N1CCC(Oc2ccc(C(=O)NC3CCCCC3)cc2)CC1 | – | inactive: 14.4%
29 | O/N=C/c1cn(-c2ccccc2)nc1-c1cccnc1 | inconclusive [inhibitor, single point] | –
30 | CCN(CC)S(=O)(=O)c1cc(NC(=O)CCc2c(C)noc2C)ccc1C | inconclusive [inhibitor, partial curve] | –
31 | O=C(Oc1ccc2c(=O)c(Cl)coc2c1)c1ccncc1 | – | inactive: 5.53%
32 | Cc1cccc(C)c1NC(=O)CNC(=O)C1CC(=O)N(Cc2ccccc2)C1 (stereo unspecified) | – | inactive: 13.6%
33 | Cc1cc(-c2ccc(C(C)C)c(S(=O)(=O)N3CCOc4ccccc43)c2)on1 | inconclusive [inhibitor, single point] | –
34 | CC(=O)Nc1ccc(NC(=O)CSCc2cnn(-c3ccccc3)c2-n2cccc2)cc1 | inconclusive [inhibitor, single point] | –
35 | Cc1cccc(NC(=O)c2cc3c(=O)n4ccccc4nc3s2)c1 | inconclusive [inhibitor, full curve, poor fit] | –
36 | COc1ccc(CNc2ccc(Cl)cc2)cc1Cn1ccnc1 | inconclusive [inhibitor, single point] | –
37 | C/C(=N\Nc1nc(C)cc(C)n1)c1ccc(N2CCOCC2)cc1 | – | inactive: -20.1%
38 | COCCNC(=O)C1CC(=O)N(C2CCCCC2)C1 (stereo unspecified) | – | inactive: 4.47%
39 | Cc1cc(/C=C2/C(=O)N(C)C(=S)N2C)c(C)n1C1CC1 | inconclusive [inhibitor, partial curve] | –
40 | CCc1nc(NCC2CCCO2)c2oc3ccccc3c2n1 (stereo unspecified) | inconclusive [inhibitor, full curve] | –
41 | COc1ccc(S(N)(=O)=O)cc1C(=O)NNC(=O)c1cccc(S(=O)(=O)N2CCOCC2)c1 | – | inactive: 1.77%
42 | O=C(c1cc(-c2cccs2)nn1-c1ccccc1)N1CCN(S(=O)(=O)c2ccccc2)CC1 | inconclusive [inhibitor, single point] | –
43 | O=C(NN=Cc1ccc(Cl)cc1Cl)C1CC1 | – | inactive: -0.495%
44 | COc1ccccc1N(C)S(=O)(=O)c1ccc(C(=O)NNC(=O)c2ccccc2O)cc1 | inconclusive [inhibitor, partial curve, poor fit] | –
45 | COc1ccc(S(=O)(=O)N2CCCC2CNC(=O)C(=O)NC2CCCCCC2)cc1 (stereo unspecified) | – | inconclusive: -42.2% [inhibitor]
46 | O=C(NC1CCN(Cc2ccccc2)CC1)C1CCCN(c2nnc(-n3cccc3)s2)C1 (stereo unspecified) | inconclusive [inhibitor, partial curve] | –
47 | CC(C)N(C(=O)[C@H]1CC(CC(=O)NCCC2=CCCCC2)C(=O)N2CCc3c([nH]c4ccccc34)[C@]12C)C(C)C (stereo partly specified) | active: 0.562 µM | –
48 | Cn1c(-c2cccs2)[n+](C)c2ccccc21 | active: 11.2 µM | –

Row | Compound | Potency | activity change, negative = inhibition
49 | Cc1cc2nc(CS)[nH]c2cc1C | inconclusive [inhibitor, single point] | –
50 | Cc1ccccc1C(=O)NCC(=O)Nc1ccc(C)c(S(=O)(=O)N2CCCCCC2)c1 | active: 8.91 µM | –
51 | Cn1c(CN2CCOCC2)nnc1SCC(=O)Nc1nccs1 | – | inactive: 14.7%
52 | Cc1ccc(CSC(Nc2ccc(F)cc2)=C(C#N)C#N)cc1 | active: 8.91 µM | –
53 | COc1cccc(Nc2nc3ccc(OC)cc3s2)c1 | inconclusive [inhibitor, partial curve] | –
54 | O=C(CCS(=O)(=O)Cc1ccc(Cl)cc1)NCCCN1CCN(c2ccccc2F)CC1 | inconclusive [inhibitor, single point] | –
55 | Cc1ccc2sc(N(CCCN(C)C)C(=O)c3ccc(S(=O)(=O)N(C)C)cc3)nc2c1C | inconclusive [inhibitor, single point] | –
56 | C/C(Cn1nnc([N+](=O)[O-])n1)=N\NC(=O)c1ccccc1 | inconclusive [inhibitor, single point] | –
57 | CCOCCCN(C(=O)c1snc(C(N)=O)c1N)C(C(=O)NC1CCCC1)c1ccc(F)cc1 (stereo unspecified) | inconclusive [inhibitor, single point] | –
58 | O=C(N/N=C/C(Br)=C\c1ccccc1)c1cccs1 | – | inconclusive: -42.1% [inhibitor]
59 | CCC(CO)Nc1ccc([N+](=O)[O-])c2cccnc12 (stereo unspecified) | inconclusive [inhibitor, single point] | –
60 | CN(C)c1ccc(C(C(=O)NCC2CCCO2)N(Cc2ccccc2)C(=O)c2snc(C(N)=O)c2N)cc1 (stereo unspecified) | – | inactive: -5.59%
61 | Cn1c(N2CCCC2)nc2c1c(=O)n(Cc1cccc(F)c1)c(=O)n2C | inconclusive [inhibitor, partial curve] | –
62 | COc1cc2nc(CC(C)C)n(NC(=O)c3ccccc3)c(=O)c2cc1OC | inconclusive [inhibitor, partial curve] | –
63 | CCN(CC)S(=O)(=O)c1cc(NC(=O)Cc2ccc(S(=O)(=O)N3CCOCC3)s2)ccc1Cl | active: 10 µM | –
64 | CCCCN(CC)CCNC(=O)c1cc2c(C)nc3ccccc3c2o1 | active: 6.31 µM | –
65 | CCOc1cc(/C=C/c2ccc3cccc([N+](=O)[O-])c3n2)ccc1O | inconclusive [inhibitor, partial curve] | –
66 | CCc1cc2c(=O)n3c(nc2s1)-c1[nH]c2ccc(OC)cc2c1CC3 | – | inactive: 9.75%
67 | O=C(CSc1nc2ccccc2c(=O)n1CCCO)NC1CC1 | inconclusive [inhibitor, single point] | –
68 | COc1cc(NC(=O)Nc2cccc(Cl)c2)c(OC)cc1NC(=O)CN1CCCCC1 | inconclusive [inhibitor, single point] | –
69 | O=C(Nc1ccccc1)c1cc2ccccc2c(=O)s1 | inconclusive [inhibitor, single point] | –
70 | CN(C)S(=O)(=O)c1cccc(NC(=O)c2cncc(Br)c2)c1 | inconclusive [inhibitor, single point] | –
71 | CCN(CC)S(=O)(=O)c1cccc(-c2nnc(SCCOc3ccccc3)o2)c1 | inconclusive [inhibitor, single point] | –
